According to PubChem BioAssay AID306 (DTP/NCI, 2004):
Toxic doses and inconclusive results are not listed. Not every entry of the source has a single result; some have several. The list is limited to them. The source may hold further records. The values listed for one entry repeat one measurement across runs, samples, wells, individuals or studies.

System: BDF1 mice, L1210 Methyl-GAG-resistant leukemia, survival T/C
Experiment: NCI In Vivo Anticancer Drug Screen. Data for tumor model L1210 Leukemia resistant to Methyl-GAG; NSC 32946 (subcutaneous) in B6D2F1 (BDF1) mice
Conditions: endpoint: mean survival time, schedule: Q01DX Z (ip), higher = longer survival
Experimental: The antitumor activity of compounds was measured in mice bearing transplantable tumors. Survival or tumor size were measured and the results are expressed as the measurement made in the treated group (T) divided by the measurement made in the vehicle treated control group (C). The tumor model used in this assay is L1210 Leukemia resistant to Methyl-GAG; NSC 32946 (subcutaneous) in B6D2F1 (BDF1) mice

For Nc1nc2n[nH]nc2c(=O)[nH]1, the T/C (dose: 200.0 mg/kg/injection, vehicle: other) was 119 % of control and 182 % of control.
With NC(=O)N(CCCl)N=O the T/C (dose: 4.0 mg/kg/injection, vehicle: carboxymethylcellulose (CMC)) was 94 % of control and 164 % of control and the T/C (dose: 8.0 mg/kg/injection, vehicle: carboxymethylcellulose (CMC)) was 116 % of control and 191 % of control.
With Nc1nc(N)c2nc(CNc3ccc(C(=O)NC(CCC(=O)O)C(=O)O)cc3)cnc2n1 (centres undefined) the T/C (dose: 8.0 micrograms/kg/injection, vehicle: alkali diluted with saline) was 102 % of control and 158 % of control.
